# Data reported in the supplement of paper PMC11417369.
# ± gives the standard deviation of the averaged measurements. The list shows a part of the results.
# Tested on: PfAP2-G AP2 domain (GST-tagged)
# Assay: gcPBM binding intensity (ln(normalized median fluorescence intensity)); higher = stronger DNA binding
# How it was run: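 Alexa488 anti-GST antibody, scanned at 488 nm, detected GST-tagged P. falciparum DNA-binding domains that had been expressed in E. coli and incubated for 1 h on an Agilent 4 × 180k array. The array carried primer-extended double-stranded 36-bp intergenic genomic probes and negative controls. Binding intensity is the highest Masliner-normalised natural-log median intensity across replicate spots of either orientation of each probe.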
row,Sequence,gcPBM binding intensity (ln)
1,AATATAAAAAAAAAAAAAAAAAAAAAAAAAAAGACA [CACACA_negctrl_site983],9.76 ± 0.23
2,TTGTTAATATGATAAAAGAGGAATATTCTCTTCCTA [GTGCAC_negctrl_site659],9.48 ± 0.14
3,TTTTTTTCTTTTTACATACACACAAAAAAATAAAAT [CACACA_site580],10.2 ± 0.4
4,AGCACATTATTCAAAAGTACAAATAGGTATTGTATA [XGTACX_site6107],11.1 ± 0.83
5,TTTATATGTATTAAGTGTACACATATAATGTATTTT [XGTACX_site16],11.5 ± 0.83
6,CAATTATTGTAATGCATGCACTGAATATAAAAAGAA,10.2 ± 0.17
7,ATATATATATATATATAATATATAATATATATATAT [CACACA_negctrl_site96],9.8 ± 0.92
8,AAATTAATGTATATGTGAAGCAAGGGATGCGGCAGA [CACACA_negctrl_site406],10.2 ± 0.12
9,ATATAAAATATGTATGAGGAATAAAATTAAAAAAAA [XGTACX_negctrl_site173],9.81
10,TTTTTTTTGAAGAATACATGCATATTTTCTATATTC [TGCATGCA_site43],9.91 ± 0.14
11,GTAAATATTTGTTGGGTGCTATCAATTATTTCAAAG,10.12 ± 0.021
12,ACAATATGCAAAAAGTGTACACATTCATTTATATAA [XGTACX_site1061],11.7 ± 0.86
13,AATATACAAATAAAGGTGCGAGATATTTTTACTTTT,9.79 ± 0.2
14,ATAAAAAAAGATGAACGTACATATATTTTAAAAATC [XGTACX_site5950],11.2 ± 0.67
15,TATTAAATATATATTACATGCAAAAAAAAAAAACAA [TGCATGCA_site705],9.85 ± 0.028
16,ATATTATATATGTATAGTACATATTATAAGAAAAAT [XGTACX_site3457],10.8 ± 0.64
17,ATCTATATCTATAATACACACATCATAAAATATGTA [CACACA_site7230],9.93 ± 0.11
18,ATATATATTAATAATGCATGTGATATAAATTAATAT [TGCATGCA_site930],9.86 ± 0.17
19,TGCGGAAATAAGTGCACACATAGATATATGTATTTT [CACACA_site3689],10.4 ± 0.26
20,TACAATTCGTAATACACACACATATAAATAAATATT [CACACA_site7720],10.2 ± 0.2

row,Sequence,gcPBM binding intensity (ln)
1,CGGCACATTCTATATACACACATATAAATATATACA [CACACA_site566],9.97 ± 0.042
2,ATGATATGGATAAATACACACAATATAATAATGGGT [CACACA_site4905],10.15 ± 0.035
3,AAAAAAAACAGACACACACACATTCAATATAAAACA [CACACA_site41],9.95 ± 0.11
4,ATATCTTATATTATCACACACACACCCACAAAACAG [CACACA_site1464],11 ± 0.78
5,ACGTTAATATCTACAAGTACCCACATTAACAGGAAA [XGTACX_site2616],11.2 ± 0.74
6,ATTTTATATATGTGTTGTACGGTGAACATTTTGATA [XGTACX_site6538],10.8 ± 0.58
7,ATATGTATAAATATAAATATATATATATATATATAT [CACACA_negctrl_site705],10 ± 0.61
8,GGATCATTTTTAAAGGAACACACAAAAAAAATTATA [CACACA_site8381],10.3 ± 0.24
9,TATATAAACATCGGTAGTACACACATTCATGTATTT [XGTACX_site6443],11.5 ± 0.71
10,TTTTTTTTTTTTTTTTGTACATATACATATATATAT [XGTACX_site1981],10.9 ± 0.84
11,AGTAGCAAATATTAAGTGCATATTATATAATGTGTA [GTGCAC_site9546],9.87 ± 0.11
12,ATTAAAAAAAAAAAAAAAAAACAAAAAAAAAAAAAA [CACACA_negctrl_site1187],9.62
13,ATAAATATGGCAGTACGTACGTATATTCATATTCAT [XGTACX_site8042],11.5 ± 0.67
14,TGTTCAGTATGGCACACACACAACAAAATAAAAAAA [CACACA_site4368],10.3 ± 0.42
15,ATACGAAATAGAAACACACATACAATAAATAAATAT [CACACA_site2017],9.87 ± 0.057
16,GGTTTACCCTATAAATGTACTCATAAATTATATATA [XGTACX_site5771],11.2 ± 0.82
17,ATAAGTTTTTATTTTCTGCACTGTCGAATAATAGTT,10.21 ± 0.085
18,GCGTGTGTACAATGAGTGCATATCTAAAGGGAAGAT,11.3 ± 0.93
19,GATATGTTTTATTATGTTGATGATAACAGGTAGTTT [CACACA_negctrl_site356],9.87
20,GTTCTTTCAAATTATACACACCAAAAAAAAAAAAAA [CACACA_site5660],10.1 ± 0.71

row,Sequence,gcPBM binding intensity (ln)
1,TGATCAAGTAAGAAAAGTACAAAAAAAGTAAAAAAT [XGTACX_site6529],11.2 ± 0.73
2,ATGGATTATTTTTAAACATGCAGTAGTGATGAAAAA [TGCATGCA_site346],10.1 ± 0.12
3,AAAAAAAACATACATACACACACATAAATATATATA [CACACA_site8864],9.96 ± 0.22
4,TATATTATAATATTCACACACTAACGTAAATCATTG [CACACA_site7318],9.94 ± 0.014
5,AAAACTATAAAAATTTTACACACTGTTTTTAAATAA [CACACA_site3667],9.71 ± 0.32
6,AAAAAATATATATATATATATATGTAATATTTTTTT [XGTACX_negctrl_site439],9.565 ± 0.007
7,TGGCAAAATAGGCACACACACATATACAGATATATT [CACACA_site4727],10.2 ± 0.18
8,TCAATGAAATTAATATGTACATATTTTTATATAGTA [XGTACX_site7955],11.3 ± 0.73
9,TAAATATATATATAAGTGCATTATATATATATATAA,9.76 ± 0.22
10,TTCTAAAATTATATAGTGCAATTATTTTATTTTTCT,9.76 ± 0.099
11,AAAAAAATAAAACACATACATATATGTATATATATA [GTGCAC_negctrl_site390],9.77 ± 0.2
12,AAAGAAAAAAAATAATGTACATATGTATTTGAGAAA [XGTACX_site3571],11 ± 0.47
13,ATTAATAATTATTATGGTACACATGTAACTACTCTC [XGTACX_site198],11.1 ± 0.54
14,ATCTCTTACATATTCACACACATATAAATAACTACA [CACACA_site6816],10.2 ± 0.2
15,ATATGATAGTTTATATGTACATAAATAAATACATAC [XGTACX_site2917],11.4 ± 0.69
16,AAAAAAAGAAAAAAACGTACATGAAAATTTTTTGTT [XGTACX_site5135],11.5 ± 1.1
17,TGTAGAAGAACCCATGCATGCAGTATGAAAAAAAAA [TGCATGCA_site907],10.2 ± 0.23
18,CTATATAAAAAAATTGCACACATAAATATATACATA [CACACA_site8325],10.2 ± 0.21
